Data from patent US20050233963A1 (priority 2000, published 2005).

System: hsp70
Conditions: mouse, in vivo, ip
Procedure: FIG. 8A, depicts an image of a western blot showing hsp72 reactivity with Stressgen SPA 812 polyclonal antibody in liver: lane 1, untreated deer mouse; lane 2, mouse treated with phenylephrine IP (25 μg/kg) 6 hours before sacrifice; lane 3, mouse subjected to stress by placement in metabolic cage, removed 6 hours before sacrifice. Similar results were obtained with BAT. FIG. 8B comprises immunohistochemical analyses of hsp70 expression in adrenal glands (top panels) and BAT (bottom panels), comparing an unstressed mouse (left) with a mouse subjected to stress with phenylephrine (25 μg/kg) 6 hours before sacrifice. […] Original magnification was 200× (adrenals) and 400× (BAT).
In the rat and mouse models it is possible to model the signals that activate brown adipose tissue during cold acclimation by administration of adrenergic agents such as phenylephrine. Phenylephrine was injected intraperitoneally at 25 μg/kg and animals were sacrificed by euthanasia at various time points.
HSPs are activated in deer mice by signals that favor activation of brown adipose tissue (BAT). In the rat and mouse models, it is possible to model the signals that activate BAT during cold-acclimation by administration of adrenergic agents such as phenylephrine. […] Of the antigens studied, only hsp70 was induced in the BAT and liver of stressed deer mice, as assessed by IHC staining and/or western blotting.

CNC[C@H](O)c1cccc(O)c1 [phenylephrine]
hsp72 expression in the liver, western blot: had increased
